In PubChem BioAssay AID1347417 (National Center for Advancing Translational Sciences (NCATS), 2020):
Screen size: about 120,000 compounds; about 5,300 (4.4%) were called active. Inconclusive results, whose numbers are uncertain, are shown with a selection of clear calls. Calls follow the shape of the dose curve; as a rule, active = well fitted inhibition curve with a large enough effect; inconclusive = small, poorly fitted or top-dose-only effect; inactive = no such curve, though single readings can be large or run the other way. A potency beside an inconclusive call is a rough fit, not a confirmed value.

Experiment: qHTS Primary assay for Inhibitors of Plasmodium falciparum Dd2 growth in vitro; also: nearly all actives have a fitted effect of over 65% in size
Conditions: P. falciparum Dd2 growth, SYBR Green, 72 h; series mostly up to 28.9 µM
In short: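 Readout: SYBR Green fluorescence, 485 nm excitation, 535 nm emission, after ~16 h lysis at 37C. Before that, Dd2-infected red cells (2.5% hematocrit) grew 72 h with compound, 29 uM top final concentration.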
Potency is read from the fitted curve at half-maximal effect; tags tell the direction and shape of the fitted curve.

**Q.** Which Potency does the source give for `O=C(CCC[C@@H]1[C@H]2CCCN3CCC[C@@H](CN1C(=O)Cc1cccs1)[C@@H]23)N1CCOCC1` here?
**A.** inconclusive: 17.8 µM [inhibitor, single point]

**Q.** For `CS(=O)(=O)NC1CCCN(c2cc(N3CCCC3)ncn2)C1` (centres undefined), which Potency is on record?
**A.** inconclusive: 1 µM [inhibitor, partial curve, poor fit]

**Q.** For `O=C(Nc1ccccc1)c1nc2c(o1)CCN(Cc1ccc(F)c(Cl)c1)CC2`, which Potency is on record?
**A.** inconclusive: 3.55 µM [inhibitor, partial curve]

**Q.** With `O=C(Nc1cccc(C(F)(F)F)c1)N[C@H]1[C@H](O)[C@@H](N2CCN(c3ccccc3)CC2)[C@@H]2OC[C@H]1O2` as the compound, how does the Potency read?
**A.** inconclusive: 15.8 µM [inhibitor, partial curve, poor fit]

**Q.** Which Potency does the source give for `CCOc1ccc(C(=O)NC2CCCN(c3cc(-c4ccccc4)[nH]n3)C2)cc1OCC` (centres undefined) here?
**A.** inconclusive: 10 µM [inhibitor, single point]

**Q.** Which Potency does the source give for `O=C(NCCc1cccs1)c1ccc(Cn2c(SCc3ccccc3)nc3cccnc32)cc1` here?
**A.** active: 11.2 µM

**Q.** With `Cc1ccc(C(=O)N2C[C@@H](COc3ccccc3)[C@H](C(N)=O)C2)nc1` as the compound, how does the Potency read?
**A.** inactive

**Q.** For `CC(=O)Nc1ccc(S(=O)(=O)N[C@H]2CO[C@H]3[C@@H]2OC[C@@H]3Nc2nccc(-c3cccc(F)c3)n2)cc1`, which Potency is on record?
**A.** inconclusive: 7.08 µM [inhibitor, partial curve]

**Q.** Which Potency does the source give for `CCCN1C(=O)Cc2cc(C(=O)NCc3ccc(C)c(C)c3)ccc21` here?
**A.** inconclusive: 1 µM [inhibitor, full curve]

**Q.** For `CC1=C(C(=O)OC(C)C)C(c2ccccc2Cl)CC(=O)N1Cc1cccc(F)c1` (centres undefined), which Potency is on record?
**A.** inconclusive: 0.282 µM [inhibitor, partial curve, poor fit]

**Q.** Which Potency does the source give for `CCNC(=O)N1CC(c2nnc(C(C)C)o2)C2(CCOCC2)C1` (centres undefined) here?
**A.** inactive

**Q.** With `COc1ccc(CN2C[C@H]3CN(Cc4ccccc4)CCN3C2=O)cc1` as the compound, how does the Potency read?
**A.** inactive

**Q.** For `Cc1ccc(-n2nc(C)c([C@@H]3C=C[C@@H](NC(=O)c4cccs4)C3)c2C)cc1Cl`, which Potency is on record?
**A.** active: 11.2 µM

**Q.** Which Potency does the source give for `CCC1C(=O)NCCN1Cc1cn(-c2cccc(F)c2)nc1-c1ccc(C)o1` (centres undefined) here?
**A.** inconclusive: 12.6 µM [inhibitor, partial curve]

**Q.** For `O=C(CN1CCN(S(=O)(=O)N2CCCC2)CC1)NCc1ccccc1F`, which Potency is on record?
**A.** inconclusive: 0.112 µM [inhibitor, full curve, poor fit]

**Q.** With `CC(C)OCCCNc1sc(S(=O)(=O)c2ccccc2)nc1S(=O)(=O)c1ccc(Cl)cc1` as the compound, how does the Potency read?
**A.** inconclusive: 0.355 µM [inhibitor, full curve, poor fit]

**Q.** Which Potency does the source give for `COC[C@H]1C[C@@H](NCc2cn(C)c3ccccc23)[C@H](O)[C@@H]1O` here?
**A.** inconclusive: 11.2 µM [inhibitor, single point]

**Q.** Which Potency does the source give for `Cc1ccc(F)cc1S(=O)(=O)N[C@@H]1CN(c2ncccn2)C[C@H]1CN(C)C` here?
**A.** inconclusive: 2 µM [inhibitor, single point]

**Q.** For `COCCCNC(=O)N1CCCC(COc2ccccc2C(=O)N2CCCCC2)C1` (centres undefined), which Potency is on record?
**A.** inconclusive: 10 µM [inhibitor, single point]

**Q.** Which Potency does the source give for `CCOc1ccc(NC(=O)C2CCN(c3cnn(Cc4ccccc4)c(=O)c3)C2)cc1` (centres undefined) here?
**A.** inconclusive: 12.6 µM [inhibitor, partial curve]

**Q.** For `O=C(Cn1nc2c(cc1=O)CCCC2)Nc1cccc(-c2ncn[nH]2)c1`, which Potency is on record?
**A.** inactive

**Q.** Which Potency does the source give for `CCn1c2c(c(=O)n1-c1ccccc1)CCN(C(=O)Cc1ccc3c(c1)OCO3)C2` here?
**A.** inactive

**Q.** For `CCOc1ccc2c(n1)CCN(C(=O)c1ccncc1)C2`, which Potency is on record?
**A.** inconclusive: 15.8 µM [inhibitor, single point]

**Q.** For `O=c1c2nc(OCc3ccc(F)cc3)ccc2ncn1Cc1ccccn1`, which Potency is on record?
**A.** inconclusive: 10 µM [inhibitor, partial curve]

**Q.** Which Potency does the source give for `CCOc1cc(=O)n2c(c1C(=O)Nc1cc(Cl)ccc1Cl)CCCC2` here?
**A.** inactive

**Q.** Which Potency does the source give for `O=C(CCC1CCCC1)NCCC1CCN(C(=O)Nc2cc(F)ccc2F)CC1` here?
**A.** inactive

**Q.** With `Cc1c(C(=O)Nc2cccc(F)c2)oc2c1-c1nn(Cc3c(F)cccc3Cl)cc1CC2` as the compound, how does the Potency read?
**A.** inconclusive: 8.91 µM [inhibitor, single point]

**Q.** With `CN(CCCN1CCCCCC1)c1nc(-c2ccncc2)nc2c1cnn2C` as the compound, how does the Potency read?
**A.** inconclusive: 17.8 µM [inhibitor, single point]

**Q.** With `O=C(Cc1c[nH]c2ccccc12)N1CCC(c2noc(C3CC3)n2)C1` (centres undefined) as the compound, how does the outcome read?
**A.** inactive [at 5.79 µM]

**Q.** With `CN1[C@@H](CCC(=O)NCc2cccs2)CNC(=O)[C@@H]2[C@H]1CCN2CC(C)(C)C` as the compound, how does the Potency read?
**A.** inconclusive: 15.8 µM [inhibitor, single point]

**Q.** Which Potency does the source give for `COc1ccc(N(CC(=O)NCc2ccccc2Cl)S(=O)(=O)c2c(C)[nH]c(=O)[nH]c2=O)cc1` here?
**A.** inconclusive: 10 µM [inhibitor, single point]

**Q.** For `COc1cccc(C(=O)N2CCC(N3C[C@H](O)C[C@H]3C(=O)NCCN3CCCC3)CC2)c1`, which Potency is on record?
**A.** inactive

**Q.** With `O=C(N[C@H]1CCN2C(=O)c3cc(-c4ccc(Cl)cc4)ccc3NC(=O)[C@H]12)C1CCCC1` as the compound, how does the Potency read?
**A.** inactive

**Q.** With `COc1cccc(NC(=O)C2(Cc3ccccc3)CCCCC(=O)N2)c1` (centres undefined) as the compound, how does the Potency read?
**A.** inconclusive: 10 µM [inhibitor, single point]

**Q.** For `O=C(Cn1cc(SCc2ccc(C(F)(F)F)cc2)c2ccccc21)N1CCCCCC1`, which Potency is on record?
**A.** inactive

**Q.** Which Potency does the source give for `CCC(Sc1nc2ccccc2c2nc(CCn3cncc3C)nn12)C(=O)Nc1cccc(OC)c1` (centres undefined) here?
**A.** active: 7.08 µM

**Q.** For `CC(C)Oc1ccc(C(=O)Nc2ccc3c(c2)CCCN3C(=O)c2cccs2)cc1`, which Potency is on record?
**A.** inconclusive: 17.8 µM [inhibitor, single point]

**Q.** Which Potency does the source give for `O=C1CN(Cc2ccc(-c3cnc4c(OCc5ccccc5)nccn34)cc2)CCN1` here?
**A.** inconclusive: 3.55 µM [inhibitor, partial curve, poor fit]

**Q.** Which Potency does the source give for `Fc1ccccc1-c1n[nH]c2c1CN(Cc1cccc3c1OCO3)CC2` here?
**A.** inconclusive: 17.8 µM [inhibitor, single point]

**Q.** With `Cc1ccc2oc(=O)n(CCC(=O)N3CCc4c(nc(C)[nH]c4=O)C3)c2c1` as the compound, how does the Potency read?
**A.** inactive

**Q.** With `O=C(Nc1c(C(=O)N2CCN(c3ccc(F)cc3)CC2)oc2ccccc12)c1c(F)cccc1F` as the compound, how does the Potency read?
**A.** inconclusive: 14.1 µM [inhibitor, single point]

**Q.** Which Potency does the source give for `COc1ccc(-c2cnc3[nH]cc(CC(=O)N4CCN(C)CC4)c3c2)cc1OC` here?
**A.** inconclusive: 2 µM [inhibitor, partial curve, poor fit]

**Q.** With `CCc1ccc(NC(=O)C2CCC(CNS(=O)(=O)c3ccc4c(c3)CC(C)N4C(C)=O)CC2)cc1` (centres undefined) as the compound, how does the Potency read?
**A.** active: 10 µM

**Q.** For `N#Cc1ccc(S(=O)(=O)N2CCCCCNC(=O)[C@@H]3CCCC[C@@H]32)cc1`, which Potency is on record?
**A.** inactive

**Q.** With `CCCN1C(=O)c2[nH]nc(-c3ccccc3O)c2C1c1ccc(OCc2ccccc2)c(OCC)c1` (centres undefined) as the compound, how does the Potency read?
**A.** active: 11.2 µM

**Q.** Which Potency does the source give for `Cc1ccc(NC(=O)c2oc3ccc(S(=O)(=O)N4CCCCCC4)cc3c2C)cc1Cl` here?
**A.** inactive

**Q.** With `CC(=O)NC[C@@H]1C=C(C)[C@H](Cc2nc3ccc(C)cc3[nH]2)C[C@H]1C(C)C` as the compound, how does the Potency read?
**A.** inconclusive: 3.16 µM [inhibitor, single point]

**Q.** For `COc1cccc(CNC(=O)[C@@H]2C[C@@H](O)CN2C2CCN(C(=O)CC(C)C)CC2)c1`, which Potency is on record?
**A.** inconclusive: 15.8 µM [inhibitor, single point]

**Q.** Which Potency does the source give for `COc1ccc(C(=O)NC2CCCN(CCc3ccccc3)C2)c(OC)n1` (centres undefined) here?
**A.** inconclusive: 17.8 µM [inhibitor, single point]

**Q.** With `CCOc1cccc(C2Nc3ccccc3-c3cc(C)nn32)c1O` (centres undefined) as the compound, how does the Potency read?
**A.** active: 1 µM

**Q.** For `COc1ccc(OC)c(C(=O)c2c(N)c(-c3nc(-c4ccc(C)c(C)c4)cs3)c3ccccn23)c1`, which Potency is on record?
**A.** inconclusive: 11.2 µM [inhibitor, single point]

**Q.** For `O=[S+]1([O-])NC2(CCN(CC3CC3)C2)CNc2ccccc21` (centres undefined), which Potency is on record?
**A.** inconclusive: 2.82 µM [inhibitor, single point]

**Q.** With `Clc1cccc(CSc2nncn3c2cc2sccc23)c1` as the compound, how does the Potency read?
**A.** inconclusive: 15.8 µM [inhibitor, single point]

**Q.** For `COCCNc1ncc(-c2cccc(OC)c2)c2c1OCC2`, which Potency is on record?
**A.** inconclusive: 11.2 µM [inhibitor, partial curve, poor fit]

**Q.** Which Potency does the source give for `COc1ccccc1-c1cc([C@H]2CN3CC[C@H]2C[C@@H]3CNS(=O)(=O)c2ccccc2)n(C)n1` here?
**A.** inconclusive: 14.1 µM [inhibitor, partial curve]

**Q.** For `COc1ccc(Cn2nnc3c(=O)[nH]c(C4CCCN(C(=O)c5ccc(C)cc5)C4)nc32)cc1` (centres undefined), which Potency is on record?
**A.** inconclusive: 10 µM [inhibitor, partial curve, poor fit]

**Q.** With `CCNC(=O)N(C1CC1)C1CCOC2(CCN(C(=O)c3nccc4ccccc34)CC2)C1` (centres undefined) as the compound, how does the Potency read?
**A.** inactive

**Q.** Which Potency does the source give for `O=C(NCc1nnc2ccc(-c3ccc(F)cc3)nn12)c1cccc(C(F)(F)F)c1` here?
**A.** inactive

**Q.** Which Potency does the source give for `Cc1cc(C(=O)N2CCc3c(nc[nH]c3=O)C2)c2cc(Cl)ccc2n1` here?
**A.** inactive

**Q.** For `Cc1ccsc1C(=O)N1CCC(n2cc(-c3nc(C(C)C)no3)nn2)CC1`, which Potency is on record?
**A.** inconclusive: 0.891 µM [inhibitor, full curve, poor fit]

**Q.** With `Cc1ccc2sc(N(Cc3cccnc3)C(=O)CCOc3ccccc3)nc2c1C` as the compound, how does the Potency read?
**A.** inconclusive: 17.8 µM [inhibitor, single point]

**Q.** With `CN(C)c1ccc(CN2CCCC3(C2)C(=NC2CCCCC2)NC(=O)N3c2cc(F)cc(F)c2)cc1` (centres undefined) as the compound, how does the Potency read?
**A.** active: 5.62 µM

**Q.** Which Potency does the source give for `O=C(c1ccc2c(c1)N(Cc1ccccc1)C(=O)c1ccccc1S2(=O)=O)N1CCN(c2ccccc2)CC1` here?
**A.** inconclusive: 3.16 µM [inhibitor, single point]

**Q.** Which Potency does the source give for `Cc1nn(C(C)C(=O)NC2CCCCC2)c(=O)c2c1sc1ccccc12` (centres undefined) here?
**A.** inconclusive: 10 µM [inhibitor, single point]
